Source: the supplement of paper PMC7826260
The other results are listed elsewhere or left out. Cleavage of a single-stranded DNA pool by Rep nickase domains was read by sequencing at 3 µM enzyme and 37 °C for 1 h; the strands have 90 letters, of which the middle is given. The score is log2 (uncut reads / reads without enzyme); uncut sequences lie near 0, cut ones below; no hit call is given. Because reads are shares of a total, they shift together, so uncut sequences can rise above 0 when many others are cut.

Key:
Test in all cases: uncleaved DNA left, log2 of reads against the no-enzyme library (log2 ratio); higher = less cleavage (more negative = more Rep cleavage of the k-mer); sequences stand for … in CTCGTCCG…ACCGGAGA
[1] = test system: T1, Rep nickase domain of Muscovy duck circovirus
T1 sequence (residues 1-111 of Rep, tag left off): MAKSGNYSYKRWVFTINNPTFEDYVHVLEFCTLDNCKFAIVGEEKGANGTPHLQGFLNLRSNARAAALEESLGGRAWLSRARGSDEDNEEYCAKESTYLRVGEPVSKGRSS
Procedure: (§1)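 A pool of 90-nt single-stranded DNAs with seven random bases just before the constant AC of the nick site (name = the seven bases) was cut by 3 µM recombinant His6-SUMO-tagged Rep nickase domain (300 nM DNA, 50 mM HEPES pH 8.0, 50 mM NaCl, 1 mM MnCl2, 1 h, 37 °C, three replicates). Uncut DNA was amplified and sequenced.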

[2] = test system: T2, Rep nickase domain of banana bunchy top virus
T2 sequence (residues 1-94 of Rep, tag left off): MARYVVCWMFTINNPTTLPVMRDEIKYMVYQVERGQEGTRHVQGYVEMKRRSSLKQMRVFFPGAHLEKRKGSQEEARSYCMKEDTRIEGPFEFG
Procedure: as §1

[3] = test system: T3, Rep nickase domain of cabbage leaf curl virus
T3 sequence (residues 1-116 of Rep, tag left off): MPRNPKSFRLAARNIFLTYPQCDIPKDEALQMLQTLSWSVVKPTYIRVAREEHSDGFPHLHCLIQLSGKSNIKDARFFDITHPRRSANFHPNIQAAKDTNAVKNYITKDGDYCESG
Procedure: as §1

[4] = test system: T4, Rep nickase domain of chickpea chlorotic dwarf virus
T4 sequence (residues 1-124 of Rep, tag left off): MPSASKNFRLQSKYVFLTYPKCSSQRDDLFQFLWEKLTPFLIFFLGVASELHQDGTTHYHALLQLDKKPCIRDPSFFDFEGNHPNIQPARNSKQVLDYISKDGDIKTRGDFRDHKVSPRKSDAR
Procedure: as §1

[5] = test system: T5, Rep nickase domain of faba bean necrotic yellows virus
T5 sequence (residues 1-98 of Rep, tag left off): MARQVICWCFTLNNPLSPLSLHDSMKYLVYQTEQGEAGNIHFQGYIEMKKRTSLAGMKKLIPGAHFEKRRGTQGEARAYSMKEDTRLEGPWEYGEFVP
Procedure: as §1

[6] = test system: T6, Rep nickase domain of maize striate mosaic virus
T6 sequence (residues 1-117 of Rep, tag left off): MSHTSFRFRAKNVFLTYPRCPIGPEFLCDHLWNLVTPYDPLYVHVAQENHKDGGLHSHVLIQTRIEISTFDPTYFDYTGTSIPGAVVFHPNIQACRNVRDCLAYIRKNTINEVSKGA
Procedure: as §1

[7] = test system: T7, Rep nickase domain of porcine circovirus 2
T7 sequence (residues 2-116 of Rep, tag left off): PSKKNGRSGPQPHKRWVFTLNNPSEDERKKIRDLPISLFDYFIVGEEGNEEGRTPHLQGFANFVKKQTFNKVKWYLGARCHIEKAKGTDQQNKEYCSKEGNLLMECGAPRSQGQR
Procedure: as §1

[8] = test system: T8, Rep nickase domain of tomato yellow leaf curl virus
T8 sequence (residues 1-136 of Rep, tag left off): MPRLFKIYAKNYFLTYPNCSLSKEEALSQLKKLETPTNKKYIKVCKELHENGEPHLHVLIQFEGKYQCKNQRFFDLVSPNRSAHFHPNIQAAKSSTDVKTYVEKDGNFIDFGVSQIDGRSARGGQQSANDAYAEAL
Procedure: as §1

[9] = test system: T9, Rep nickase domain of wheat dwarf virus
T9 sequence (residues 1-137 of Rep, tag left off): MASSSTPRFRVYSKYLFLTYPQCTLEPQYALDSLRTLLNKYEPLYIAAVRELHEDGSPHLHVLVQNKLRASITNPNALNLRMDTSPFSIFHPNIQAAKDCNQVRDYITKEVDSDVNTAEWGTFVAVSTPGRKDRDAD
Procedure: as §1

Row | Sequence | uncleaved DNA left (log2) [1] | uncleaved DNA left (log2) [2] | uncleaved DNA left (log2) [3] | uncleaved DNA left (log2) [4] | uncleaved DNA left (log2) [5] | uncleaved DNA left (log2) [6] | uncleaved DNA left (log2) [7] | uncleaved DNA left (log2) [8] | uncleaved DNA left (log2) [9]
1 | GCTGTGG | -0.0603 | 0.0401 | -0.198 | -0.114 | -0.0286 | -0.779 | 0.0635 | 0.0419 | -0.056
2 | AACCGCT | -0.0428 | -0.0603 | -0.451 | -1.71 | -0.0251 | -0.908 | -0.937 | -0.101 | -0.127
3 | CGCGTGT | -0.0832 | -0.209 | -0.212 | -0.0948 | -0.131 | -0.0204 | -0.205 | -0.126 | -0.237
4 | ACAATTC | 0.0879 | 0.0757 | -0.365 | -0.507 | -0.0668 | -1.13 | 0.108 | -0.0127 | -0.109
5 | CAACCTC | -0.114 | 0.0169 | -0.0689 | -0.439 | -0.0882 | 0.609 | -0.275 | -0.135 | -0.00581
6 | AGGCTTT | 0.0293 | 0.0878 | 0.372 | -0.448 | 0.117 | 0.926 | -0.0535 | 0.179 | 0.157
7 | TCCGGTA | 0.111 | -0.0622 | 0.285 | 0.372 | -0.0198 | 0.922 | 0.119 | -0.00117 | -0.019
8 | AAGCGAC | -0.00525 | -0.0305 | -0.0339 | 0.598 | -0.0664 | 0.741 | 0.0744 | -0.112 | 0.0389
9 | GCAGCAG | 0.0675 | 0.0209 | -0.583 | -0.371 | 0.034 | -0.773 | 0.168 | 0.0393 | -0.0512
10 | ATTGCCT | -0.0492 | -0.157 | -0.644 | -1.28 | -0.102 | -1.04 | -0.38 | -0.125 | -0.145
11 | AGATTGG | 0.0298 | 0.025 | -0.603 | -0.576 | -0.052 | -1.15 | 0.116 | 0.0202 | -0.0854
12 | ACAAGTC | 0.0903 | 0.0524 | -0.705 | -0.529 | -0.0163 | -0.894 | 0.168 | -0.0118 | -0.0925
13 | TACCGCA | 0.0445 | 0.0578 | -0.452 | -1.94 | 0.025 | -1.11 | -0.41 | -0.0719 | -0.233
14 | TGCCCTC | -0.0318 | -0.0188 | 0.305 | 0.366 | -0.0871 | 0.88 | -0.0215 | -0.0249 | 0.0196
15 | AATGAGC | 0.0501 | -0.0516 | -0.284 | -0.184 | -0.0949 | -0.47 | 0.0796 | -0.0193 | -0.0405
16 | CCATTGT | -0.158 | -0.103 | -0.747 | -0.345 | -0.00978 | -0.963 | -0.21 | 0.0688 | -0.193
17 | AAAATCG | 0.123 | 0.116 | -0.884 | 0.0124 | 0.135 | -1.07 | 0.289 | 0.065 | 0.0259
18 | CGGTTCA | -0.125 | -0.147 | 0.0885 | -0.111 | 0.0241 | 0.288 | -0.0886 | 0.0168 | 0.101
19 | TTTAGGA | 0.0979 | 0.0372 | 0.162 | 0.424 | 0.0789 | -0.14 | 0.162 | 0.0444 | 0.016
20 | TCGCAGC | 0.0496 | -0.0571 | -0.0361 | -0.39 | 0.0499 | -1.01 | 0.0794 | 0.0334 | 0.124
21 | CTCGCGC | -0.0604 | -0.0685 | -0.781 | -0.729 | 0.00605 | -0.924 | 0.165 | 0.0452 | -0.104
22 | CTCAGAG | -0.00411 | 0.00827 | -0.66 | -0.465 | 0.164 | -1 | 0.0857 | 0.0594 | 0.00318
23 | TGCAAGC | 0.0064 | 0.0162 | 0.00889 | 0.236 | -0.0219 | -0.256 | 0.0362 | 0.0401 | 0.00601
24 | TAGTGGC | 0.00387 | -0.00835 | -0.179 | -0.403 | -0.102 | -0.861 | -0.358 | 0.0193 | 0.00244
25 | CCCGACC | -0.0977 | -0.0458 | -0.125 | 0.00866 | 0.0252 | -0.689 | -0.0846 | -0.135 | -0.212
26 | GTGCTAA | 0.0719 | 0.0344 | 0.307 | 0.951 | 0.000301 | 1.63 | 0.028 | 0.0296 | 0.0174
27 | ACGCTGC | 0.0532 | 0.0182 | -0.425 | -0.205 | 0.142 | -0.618 | 0.184 | -0.00769 | -0.0881
28 | AGTGCAT | 0.01 | 0.0646 | 0.112 | 0.556 | -0.124 | 0.415 | -2.13 | 0.0225 | 0.0631
29 | CGGATCG | 0.058 | -0.0971 | -0.687 | -0.225 | -0.0735 | -0.776 | 0.214 | 0.0274 | -0.0706
30 | ATTAATC | 0.0234 | 0.045 | 0.146 | 0.0763 | 0.0702 | -0.684 | 0.0833 | 0.0707 | 0.101
